# PubChem BioAssay (Tox21)
# Values joined by “and” are separate entries in the source; they are usually repeats but may differ in a detail not shown here. Equal values may be shown once. Inconclusive means that the source gave no clear call. Such entries were picked first, then a sample of the others. A potency beside an inconclusive call is a rough fit, not a confirmed value. More than one record can exist for a structure, and the calls need not agree. Active and inactive are the calls of the source. Calls come from the whole dose curve; as a rule, active = well fitted curve in the direction sought with a large enough effect in the repeat runs; inconclusive = weak or mixed curves; inactive = no such curve, though single readings can be large; an effect the other way counts as inactive or inconclusive.
# Assays:
# [1] = qHTS RealTime-Glo MT Cell Viability Assay in HepG2 cells - 24 hour (AID 1224867); note: nearly all actives have a fitted effect of over 50% in size
# Procedure, shortened: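 Luminescence read-out: viable HepG2 cells reduce a prosubstrate to a NanoLuc substrate, giving a signal proportional to live cell number. Reads taken at 0, 8, 16, 24, 32 and 40 h of compound exposure at 37 C.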
# [2] = A CellTox Green Cytotoxicity Assay to monitor cytotoxicity in HEK293 cells - 40 hour (AID 1224871); note: nearly all actives have a fitted effect of over 45% in size
# Procedure, shortened: (§1)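 Fluorescence from a DNA-binding dye excluded by viable cells was measured repeatedly in the same HEK293 wells (600 cells/well) during continuous compound exposure at 37 C. Each assay gives one read point: 0, 8, 16, 24, 32 or 40 h.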
# [3] = qHTS RealTime-Glo MT Cell Viability Assay in HEK293 cells - 16 hour (AID 1224872); note: nearly all actives have a fitted effect of over 50% in size
# Procedure, shortened: (§2)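 Nonlytic real-time viability readout: viable cells convert prosubstrate to NanoLuc substrate, giving luminescence proportional to live cell number. HEK293, 600 cells/well, compound added after 5 h, continuous culture at 37 C.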
# [4] = qHTS RealTime-Glo MT Cell Viability Assay in HepG2 cells - 8 hour (AID 1224873); note: nearly all actives have a fitted effect of over 55% in size
# Procedure, shortened: (§3)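 HepG2 cells (600/well) mixed with RealTime-Glo MT reagent, settled 5 h at 37 C/5% CO2 before compound addition. Nonlytic NanoLuc luminescence from viable-cell prosubstrate reduction read repeatedly during 40 h treatment at 37 C.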
# [5] = qHTS RealTime-Glo MT Cell Viability Assay in HEK293 cells - 40 hour (AID 1224874); details: RealTime-Glo luminescence; max response: active compounds read low; note: nearly all actives have a fitted effect of over 50% in size
# Procedure, shortened: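 Luminescence, which tracks viable cell number through reduction of the prosubstrate to a NanoLuc substrate, was read over continuous 37 C culture. Cells (600/well) were premixed with reagent and rested 5 h before 23 nL of compound in DMSO was pinned.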
# [6] = qHTS RealTime-Glo MT Cell Viability Assay in HepG2 cells - 40 hour (AID 1224870); note: nearly all actives have a fitted effect of over 50% in size
# Procedure, shortened: as §3
# [7] = A CellTox Green Cytotoxicity Assay to monitor cytotoxicity in HEK293 cells - 24 hour (AID 1224875); note: nearly all actives have a fitted effect of over 45% in size
# Procedure, shortened: as §1
# [8] = qHTS RealTime-Glo MT Cell Viability Assay in HEK293 cells - 32 hour (AID 1224868); note: nearly all actives have a fitted effect of over 50% in size
# Procedure, shortened: as §2
# Potency is the fitted concentration of half-maximal effect; tags give direction and shape of the fitted curve.
smiles,measurement,setting,value
CCCC1COC(Cn2cncn2)(c2ccc(Cl)cc2Cl)O1 (centres undefined),Potency,[1],inactive
same,Potency,[2],"inconclusive: 55.9 µM [activator, single point] and inconclusive: 43.6 µM [activator, partial curve, poor fit]"
same,Potency,[3],"inconclusive: 25 µM [cytotoxic, partial curve] and inconclusive: 38.9 µM [cytotoxic, partial curve]"
same,Potency,[4],"inconclusive: 54.9 µM [falling, partial curve, poor fit]"
same,Potency,[5],active: 25 µM and active: 21.9 µM
O=C(CCl)c1ccccc1,Potency,[1],"inconclusive: 54.9 µM [falling, partial curve, poor fit]"
same,Potency,[6],inactive
same,Potency,[2],active: 54.9 µM
same,Potency,[4],"inconclusive: 38.9 µM [falling, partial curve, poor fit]"
Cc1cc(C(C)(C)c2ccc(O)c(C)c2)ccc1O,Potency,[1],inactive
same,Potency,[2],"inconclusive: 52.3 µM [activator, single point]"
same,Potency,[7],"inconclusive: 52.3 µM [activator, single point]"
C#C[C@]1(O)CC[C@H]2[C@@H]3CCC4=CC(=O)CCC4=C3C=C[C@@]21CC,Potency,[1],"inconclusive: 12 µM [falling, partial curve, poor fit]"
same,Potency,[8],"inconclusive: 19 µM [cytotoxic, partial curve]"
same,Potency,[3],"inconclusive: 23.9 µM [cytotoxic, partial curve, poor fit]"
same,Potency,[5],"inconclusive: 16.9 µM [cytotoxic, partial curve]"
same,Potency,[7],inactive
C=CC(=O)NCNC(=O)C=C,Potency,[1],inactive
same,Potency,[3],inactive
same,Potency,[5],"inconclusive: 61.6 µM [rising, single point]"
Cc1cc(C)c(C(=O)P(=O)(c2ccccc2)c2ccccc2)c(C)c1,Potency,[1],"inconclusive: 43.6 µM [falling, partial curve, poor fit]"
same,Potency,[2],"inconclusive: 24.5 µM [activator, partial curve, poor fit]"
same,Potency,[3],active: 43.6 µM
same,Potency,[4],"inconclusive: 49 µM [falling, single point]"
CN1C[C@H](CNC(=O)OCc2ccccc2)C[C@@H]2c3cccc4c3c(cn4C)C[C@H]21,Potency,[1],"inconclusive: 23.9 µM [falling, partial curve]"
same,Potency,[6],"inconclusive: 26.8 µM [falling, single point]"
[Cl][Sn]([c]1ccccc1)([c]1ccccc1)[c]1ccccc1,Potency,[1],active: 2.61 µM
same,Potency,[2],active: 1.65 µM
same,Potency,[3],active: 0.293 µM
same,Potency,[4],active: 7.37 µM
same,Potency,[5],active: 0.233 µM
same,Potency,[7],active: 1.85 µM
CCN(CC)c1c([N+](=O)[O-])cc(C(F)(F)F)c(N)c1[N+](=O)[O-],Potency,[1],"inconclusive: 54.9 µM [falling, single point]"
same,Potency,[2],"inconclusive: 61.6 µM [activator, single point]"
same,Potency,[4],"inconclusive: 54.9 µM [falling, single point]"
same,Potency,[5],active: 21.9 µM
O=C(N[C@H](c1ccccc1)[C@@H]1CN2CCC1CC2)c1c(Cl)ccc(C(F)(F)F)c1Cl,Potency,[1],"inconclusive: 78.8 µM [falling, partial curve, poor fit]"
same,Potency,[3],active: 78.8 µM
same,Potency,[5],active: 70.2 µM
same,Potency,[7],"inconclusive: 78.8 µM [activator, single point]"
CCCCCCI,Potency,[1],"inconclusive: 43.7 µM [falling, partial curve]"
same,Potency,[6],active: 24.6 µM
same,Potency,[4],inactive
CCC(OC(C)=O)C(CC(C)NC)(c1ccccc1)c1ccccc1 (centres undefined),Potency,[1],active: 62.2 µM
same,Potency,[8],active: 55.4 µM
same,Potency,[4],"inconclusive: 69.7 µM [falling, partial curve, poor fit]"
same,Potency,[7],"inconclusive: 62.2 µM [activator, single point]"
Cc1ccccc1OP(=O)(Oc1ccccc1C)Oc1ccccc1C,Potency,[1],inactive
same,Potency,[8],"inconclusive: 27.6 µM [cytotoxic, partial curve]"
same,Potency,[5],"inconclusive: 27.6 µM [cytotoxic, partial curve]"
CCOP(=S)(NC(C)C)Oc1ccccc1C(=O)OC(C)C (centres undefined),Potency,[1],"inconclusive: 34.7 µM [falling, partial curve, poor fit]"
same,Potency,[6],"inconclusive: 38.9 µM [falling, partial curve]"
same,Potency,[2],inactive
same,Potency,[3],"inconclusive: 43.6 µM [cytotoxic, partial curve]"
